In the supplement of paper PMC8728848:
This is one part of the list.

Assays:
Assay in all cases: glycan array binding signal (z-score within array); higher = stronger binding
Conditions in all cases: glycan notation: IUPAC condensed, linker removed
[1] = target: Gal(b1-4)GlcNAc(b1-3)Gal(b1-4)GlcNAc(b1-2)Man(a1-3)[Gal(b1-4)GlcNAc(b1-3)Gal(b1-4)GlcNAc(b1-2)Man(a1-6)]Man(b1-4)GlcNAc(b1-4)[Fuc(a1-6)]GlcNAc
Method in brief: (§1)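 Columns mapping to the same glycan were averaged after glycan names were converted to IUPAC-condensed notation. The data come from 3228 arrays in the Consortium for Functional Glycomics database, limited to those with an available protein sequence. Binding is reported as a within-array Z-score averaged across arrays of one protein sequence and across linkers.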

[2] = target: Gal(b1-4)GlcNAc(b1-3)Gal(b1-4)GlcNAc(b1-2)[Gal(b1-4)GlcNAc(b1-3)Gal(b1-4)GlcNAc(b1-6)]Man(a1-6)[Gal(b1-4)GlcNAc(b1-3)Gal(b1-4)GlcNAc(b1-2)Man(a1-3)]Man(b1-4)GlcNAc(b1-4)GlcNAc
Method in brief: as §1

[3] = target: Gal(b1-4)GlcNAc(b1-3)Gal(b1-4)GlcNAc(b1-2)[Gal(b1-4)GlcNAc(b1-3)Gal(b1-4)GlcNAc(b1-6)]Man(a1-6)[Gal(b1-4)GlcNAc(b1-3)Gal(b1-4)GlcNAc(b1-2)Man(a1-3)]Man(b1-4)GlcNAc(b1-4)[Fuc(a1-6)]GlcNAc
Method in brief: as §1

[4] = target: Gal(b1-4)GlcNAc(b1-3)Gal(b1-4)GlcNAc(b1-3)Gal(b1-4)GlcNAc
Method in brief: as §1

[5] = target: Gal(b1-4)GlcNAc(b1-3)Gal(b1-4)GlcNAc(b1-3)Gal(b1-4)GlcNAc(b1-2)Man(a1-3)[Gal(b1-4)GlcNAc(b1-3)Gal(b1-4)GlcNAc(b1-3)Gal(b1-4)GlcNAc(b1-2)Man(a1-6)]Man(b1-4)GlcNAc(b1-4)GlcNAc
Method in brief: as §1

[6] = target: Gal(b1-4)GlcNAc(b1-3)Gal(b1-4)GlcNAc(b1-3)Gal(b1-4)GlcNAc(b1-2)Man(a1-3)[Gal(b1-4)GlcNAc(b1-3)Gal(b1-4)GlcNAc(b1-3)Gal(b1-4)GlcNAc(b1-2)Man(a1-6)]Man(b1-4)GlcNAc(b1-4)[Fuc(a1-6)]GlcNAc
Method in brief: as §1

[7] = target: Gal(b1-4)GlcNAc(b1-3)Gal(b1-4)GlcNAc(b1-3)Gal(b1-4)GlcNAc(b1-2)[Gal(b1-4)GlcNAc(b1-3)Gal(b1-4)GlcNAc(b1-3)Gal(b1-4)GlcNAc(b1-6)]Man(a1-6)[Gal(b1-4)GlcNAc(b1-3)Gal(b1-4)GlcNAc(b1-3)Gal(b1-4)GlcNAc(b1-2)Man(a1-3)]Man(b1-4)GlcNAc(b1-4)[Fuc(a1-6)]GlcNAc
Method in brief: as §1

[8] = target: Gal(b1-4)GlcNAc(b1-3)Gal(b1-4)GlcNAc(b1-3)Gal(b1-4)GlcNAc(b1-3)Gal(b1-4)GlcNAc(b1-2)Man(a1-3)[Gal(b1-4)GlcNAc(b1-3)Gal(b1-4)GlcNAc(b1-3)Gal(b1-4)GlcNAc(b1-3)Gal(b1-4)GlcNAc(b1-2)Man(a1-6)]Man(b1-4)GlcNAc(b1-4)GlcNAc
Method in brief: as §1

[9] = target: Gal(b1-4)GlcNAc(b1-3)Gal(b1-4)GlcNAc(b1-3)Gal(b1-4)GlcNAc(b1-3)Gal(b1-4)GlcNAc(b1-2)Man(a1-3)[Gal(b1-4)GlcNAc(b1-3)Gal(b1-4)GlcNAc(b1-3)Gal(b1-4)GlcNAc(b1-3)Gal(b1-4)GlcNAc(b1-2)Man(a1-6)]Man(b1-4)GlcNAc(b1-4)[Fuc(a1-6)]GlcNAc
Method in brief: as §1

[10] = target: Gal(b1-4)GlcNAc(b1-3)Gal(b1-4)GlcNAc(b1-3)Gal(b1-4)GlcNAc(b1-3)Gal(b1-4)GlcNAc(b1-2)[Gal(b1-4)GlcNAc(b1-3)Gal(b1-4)GlcNAc(b1-3)Gal(b1-4)GlcNAc(b1-3)Gal(b1-4)GlcNAc(b1-6)]Man(a1-6)[Gal(b1-4)GlcNAc(b1-3)Gal(b1-4)GlcNAc(b1-3)Gal(b1-4)GlcNAc(b1-3)Gal(b1-4)GlcNAc(b1-2)Man(a1-3)]Man(b1-4)GlcNAc(b1-4)[Fuc(a1-6)]GlcNAc
Method in brief: as §1

[11] = target: Gal(b1-4)GlcNAc(b1-3)Gal(b1-4)GlcNAc(b1-3)Gal(b1-4)GlcNAc(b1-3)Gal(b1-4)GlcNAc(b1-3)Gal(b1-4)GlcNAc(b1-2)Man(a1-3)[Gal(b1-4)GlcNAc(b1-3)Gal(b1-4)GlcNAc(b1-3)Gal(b1-4)GlcNAc(b1-3)Gal(b1-4)GlcNAc(b1-3)Gal(b1-4)GlcNAc(b1-2)Man(a1-6)]Man(b1-4)GlcNAc(b1-4)GlcNAc
Method in brief: as §1

[12] = target: Gal(b1-4)GlcNAc(b1-3)Gal(b1-4)GlcNAc(b1-3)Gal(b1-4)GlcNAc(b1-3)Gal(b1-4)GlcNAc(b1-3)Gal(b1-4)GlcNAc(b1-2)Man(a1-3)[Gal(b1-4)GlcNAc(b1-3)Gal(b1-4)GlcNAc(b1-3)Gal(b1-4)GlcNAc(b1-3)Gal(b1-4)GlcNAc(b1-3)Gal(b1-4)GlcNAc(b1-2)Man(a1-6)]Man(b1-4)GlcNAc(b1-4)[Fuc(a1-6)]GlcNAc
Method in brief: as §1

[13] = target: Gal(b1-4)GlcNAc(b1-3)Gal(b1-4)GlcNAc(b1-3)Gal(b1-4)GlcNAc(b1-3)Gal(b1-4)GlcNAc(b1-3)Gal(b1-4)GlcNAc(b1-2)[Gal(b1-4)GlcNAc(b1-3)Gal(b1-4)GlcNAc(b1-3)Gal(b1-4)GlcNAc(b1-3)Gal(b1-4)GlcNAc(b1-3)Gal(b1-4)GlcNAc(b1-6)]Man(a1-6)[Gal(b1-4)GlcNAc(b1-3)Gal(b1-4)GlcNAc(b1-3)Gal(b1-4)GlcNAc(b1-3)Gal(b1-4)GlcNAc(b1-3)Gal(b1-4)GlcNAc(b1-2)Man(a1-3)]Man(b1-4)GlcNAc(b1-4)[Fuc(a1-6)]GlcNAc
Method in brief: as §1

[14] = target: Gal(b1-4)GlcNAc(b1-3)Gal(b1-4)GlcNAc(b1-3)Gal(b1-4)GlcNAc(b1-3)Gal(b1-4)GlcNAc(b1-3)Gal(b1-4)GlcNAc(b1-3)Gal(b1-4)GlcNAc(b1-2)Man(a1-3)[Gal(b1-4)GlcNAc(b1-3)Gal(b1-4)GlcNAc(b1-3)Gal(b1-4)GlcNAc(b1-3)Gal(b1-4)GlcNAc(b1-3)Gal(b1-4)GlcNAc(b1-3)Gal(b1-4)GlcNAc(b1-2)Man(a1-6)]Man(b1-4)GlcNAc(b1-4)GlcNAc
Method in brief: as §1

[15] = target: Gal(b1-4)GlcNAc(b1-3)Gal(b1-4)GlcNAc(b1-3)GalNAc
Method in brief: as §1

[16] = target: Gal(b1-4)GlcNAc(b1-3)Gal(b1-4)GlcNAc(b1-3)[Gal(b1-4)GlcNAc(b1-3)Gal(b1-4)GlcNAc(b1-6)]GalNAc
Method in brief: as §1

[17] = target: Gal(b1-4)GlcNAc(b1-3)Gal(b1-4)GlcNAc(b1-6)[Gal(b1-3)]GalNAc
Method in brief: as §1

[18] = target: Gal(b1-4)GlcNAc(b1-3)Gal(b1-4)[Fuc(a1-3)]GlcNAc(b1-3)Gal(b1-4)[Fuc(a1-3)]GlcNAc
Method in brief: as §1

[19] = target: Gal(b1-4)GlcNAc(b1-3)GalNAc
Method in brief: as §1

[20] = target: Gal(b1-4)GlcNAc(b1-3)[Fuc(a1-3)GlcNAc(b1-6)]Gal(b1-4)Glc
Method in brief: as §1

[21] = target: Gal(b1-4)GlcNAc(b1-3)[Gal(b1-4)GlcNAc(b1-6)]Gal(b1-4)GlcNAc
Method in brief: as §1

[22] = target: Gal(b1-4)GlcNAc(b1-3)[GlcNAc(b1-6)]Gal(b1-4)GlcNAc
Method in brief: as §1

[23] = target: Gal(b1-4)GlcNAc(b1-6)Gal(b1-4)GlcNAc
Method in brief: as §1

[24] = target: Gal(b1-4)GlcNAc(b1-6)GalNAc
Method in brief: as §1

[25] = target: Gal(b1-4)GlcNAc(b1-6)[Gal(b1-3)]GalNAc
Method in brief: as §1

[26] = target: Gal(b1-4)GlcNAc(b1-6)[Gal(b1-4)GlcNAc(b1-3)]GalNAc
Method in brief: as §1

Gal(b1-4)GlcNAc6P = target: Gal(b1-4)GlcNAc6P
Method in brief: as §1

Gal(b1-6)Gal = target: Gal(b1-6)Gal
Method in brief: as §1

Gal3S(b1-3)GalNAc = target: Gal3S(b1-3)GalNAc
Method in brief: as §1

Gal3S(b1-3)GlcNAc = target: Gal3S(b1-3)GlcNAc
Method in brief: as §1

[27] = target: Gal3S(b1-3)[Fuc(a1-4)]GlcNAc
Method in brief: as §1

Gal3S(b1-4)Glc = target: Gal3S(b1-4)Glc
Method in brief: as §1

Gal3S(b1-4)Glc6S = target: Gal3S(b1-4)Glc6S
Method in brief: as §1

Gal3S(b1-4)GlcNAc = target: Gal3S(b1-4)GlcNAc
Method in brief: as §1

[28] = target: Gal3S(b1-4)[Fuc(a1-3)]Glc6S
Method in brief: as §1

[29] = target: Gal3S(b1-4)[Fuc(a1-3)]GlcNAc
Method in brief: as §1

[30] = target: Gal3S(b1-4)[Fuc(a1-3)]GlcNAc6S
Method in brief: as §1

Gal3S4S(b1-4)GlcNAc = target: Gal3S4S(b1-4)GlcNAc
Method in brief: as §1

Gal3S6S(b1-4)GlcNAc = target: Gal3S6S(b1-4)GlcNAc
Method in brief: as §1

Gal3S6S(b1-4)GlcNAc6S = target: Gal3S6S(b1-4)GlcNAc6S
Method in brief: as §1

Gal4S(b1-4)GlcNAc = target: Gal4S(b1-4)GlcNAc
Method in brief: as §1

Gal4S6S(b1-4)GlcNAc = target: Gal4S6S(b1-4)GlcNAc
Method in brief: as §1

Gal6P(b1-4)GlcNAc = target: Gal6P(b1-4)GlcNAc
Method in brief: as §1

Gal6S(b1-3)GlcNAc = target: Gal6S(b1-3)GlcNAc
Method in brief: as §1

Gal6S(b1-3)GlcNAc6S = target: Gal6S(b1-3)GlcNAc6S
Method in brief: as §1

B1: DrGal3 (Danio rerio) (protein)
chain: MDLSDALDAPPQQNNQQAGGPVWPGQPANPVWPGQPANPTWPGQPNQPAWPGQPNQQWPGQPGQPTAPGWPGPAPQTGPYGAPGQAPQVLTVPLDFPLQNGAYNKMLITINGEVKPNAKQFTVNLRRGNDIAFHINPRFSEGGKPVIVRNSMIGNNWGREERELPSFPFVPGKPFEMKILITDTEYKVAVNKSHLLEFKHRVFELNQITGLSIYNDVTLSTVNVETLQ
glycan array binding signal (z-score) [1]: 2.07
glycan array binding signal (z-score) [2]: 0.04
glycan array binding signal (z-score) [3]: 1.7
glycan array binding signal (z-score) [4]: 1.12
glycan array binding signal (z-score) [5]: 3.47
glycan array binding signal (z-score) [6]: 4.37
glycan array binding signal (z-score) [7]: 3.07
glycan array binding signal (z-score) [8]: 4.2
glycan array binding signal (z-score) [9]: 5.59
glycan array binding signal (z-score) [10]: 4.6
glycan array binding signal (z-score) [11]: 6.65
glycan array binding signal (z-score) [12]: 4.37
glycan array binding signal (z-score) [13]: 5.52
glycan array binding signal (z-score) [14]: 5.72
glycan array binding signal (z-score) [15]: -0.046
glycan array binding signal (z-score) [16]: 0.159
glycan array binding signal (z-score) [17]: -0.147
glycan array binding signal (z-score) [18]: -0.223
glycan array binding signal (z-score) [19]: -0.269
glycan array binding signal (z-score) [20]: -0.169
glycan array binding signal (z-score) [21]: -0.258
glycan array binding signal (z-score) [22]: -0.229
glycan array binding signal (z-score) [23]: -0.144
glycan array binding signal (z-score) [24]: -0.192
glycan array binding signal (z-score) [25]: -0.235
glycan array binding signal (z-score) [26]: -0.218
glycan array binding signal (z-score) (Gal(b1-4)GlcNAc6P): -0.184
glycan array binding signal (z-score) (Gal(b1-6)Gal): -0.229
glycan array binding signal (z-score) (Gal3S(b1-3)GalNAc): -0.185
glycan array binding signal (z-score) (Gal3S(b1-3)GlcNAc): -0.186
glycan array binding signal (z-score) [27]: -0.212
glycan array binding signal (z-score) (Gal3S(b1-4)Glc): -0.251
glycan array binding signal (z-score) (Gal3S(b1-4)Glc6S): -0.196
glycan array binding signal (z-score) (Gal3S(b1-4)GlcNAc): -0.25
glycan array binding signal (z-score) [28]: 0.006
glycan array binding signal (z-score) [29]: -0.154
glycan array binding signal (z-score) [30]: -0.106
glycan array binding signal (z-score) (Gal3S4S(b1-4)GlcNAc): -0.258
glycan array binding signal (z-score) (Gal3S6S(b1-4)GlcNAc): -0.226
glycan array binding signal (z-score) (Gal3S6S(b1-4)GlcNAc6S): -0.202
glycan array binding signal (z-score) (Gal4S(b1-4)GlcNAc): -0.261
glycan array binding signal (z-score) (Gal4S6S(b1-4)GlcNAc): -0.248
glycan array binding signal (z-score) (Gal6P(b1-4)GlcNAc): -0.258
glycan array binding signal (z-score) (Gal6S(b1-3)GlcNAc): -0.255
glycan array binding signal (z-score) (Gal6S(b1-3)GlcNAc6S): -0.174
